Measurements as given in the supplement of paper PMC10369915.
The list shows a part of the results. No stated cut-off is given here; in the data, active = 3.2 or more and inactive = the rest. Only a few entries rise above the background.

target: SHP2 C-SH2 domain E139D; test: enrichment score (SH2-bound / input frequency) (ratio); bacterial display of known human phosphotyrosine sites (pTyr-Var adds point mutants) read by sequencing; higher = stronger binding; tyrosines were phosphorylated by kinases first; conditions: peptide library: pTyr-Var
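Further: displayed peptides selected on beads carrying the immobilized SH2 domain, with library peptides lacking any tyrosine serving as negative controls.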

Row | Binder | enrichment score
1 | VIVRMYDYHVL [RPF2_Y109_G106V] | active: 3.29
2 | EKQVAYCPSGK [ROS1_Y2323] | inactive: 0.567
3 | FMLFQYLKQIE [RPAP3_Y569_D564Y_YF] | active: 4.26
4 | SPDMLYQFLKQ [RPAP3_Y567_YF] | inactive: 0.872
5 | YGSSSSGGAGG [RPA2_Y14_Y14S] | inactive: 0.451
6 | FLNSIYKCRDE [ROS1_Y2227_S2229C] | inactive: 1.01
7 | VIGRMYDYHVL [RPF2_Y109] | inactive: 1.41
8 | SGFESYGSSSS [RPA2_Y9_Y14S] | inactive: 0.591
9 | SPDMLYQYLKQ [RPAP3_Y567] | inactive: 0.943
10 | IRTDAYVPAMT [RPE65_Y89_R91P] | inactive: 0.969
11 | DMLYQYLKQIE [RPAP3_Y569] | inactive: 1.88
12 | YMLYQYLKQIE [RPAP3_Y569_D564Y] | active: 3.27
13 | PEVRRHVLPLN [RPE65_Y368_Y368H] | inactive: 1.07
14 | PVVKLYATEGR [RP1_Y199_D202E] | inactive: 0.644
15 | YGSSSYRGAGG [RPA2_Y14_G15R] | inactive: 0.705
16 | SGFESYGSSSY [RPA2_Y9] | inactive: 0.552
17 | IRTDAYVWAMT [RPE65_Y89_R91W] | inactive: 0.795
18 | HEDPMYDIIRD [RP9_Y142] | inactive: 0.665
19 | SPYMLYQYLKQ [RPAP3_Y567_D564Y] | inactive: 1.59

target: SHP2 C-SH2 domain wild-type; test: as above; conditions: peptide library: pTyr-Var

Row | Binder | enrichment score
20 | VIVRMYDYHVL [RPF2_Y109_G106V] | inactive: 3.02
21 | EKQVAYCPSGK [ROS1_Y2323] | inactive: 0.629
22 | FMLFQYLKQIE [RPAP3_Y569_D564Y_YF] | active: 3.56
23 | SPDMLYQFLKQ [RPAP3_Y567_YF] | inactive: 0.709
24 | YGSSSSGGAGG [RPA2_Y14_Y14S] | inactive: 0.364
25 | FLNSIYKCRDE [ROS1_Y2227_S2229C] | inactive: 1.17
26 | VIGRMYDYHVL [RPF2_Y109] | inactive: 1.55
27 | SGFESYGSSSS [RPA2_Y9_Y14S] | inactive: 0.624
28 | SPDMLYQYLKQ [RPAP3_Y567] | inactive: 0.924
29 | IRTDAYVPAMT [RPE65_Y89_R91P] | inactive: 0.708
30 | DMLYQYLKQIE [RPAP3_Y569] | inactive: 1.28
31 | YMLYQYLKQIE [RPAP3_Y569_D564Y] | active: 3.6
32 | PEVRRHVLPLN [RPE65_Y368_Y368H] | inactive: 1.16
33 | PVVKLYATEGR [RP1_Y199_D202E] | inactive: 0.914
34 | YGSSSYRGAGG [RPA2_Y14_G15R] | inactive: 0.521
35 | SGFESYGSSSY [RPA2_Y9] | inactive: 0.552
36 | IRTDAYVWAMT [RPE65_Y89_R91W] | inactive: 0.74
37 | HEDPMYDIIRD [RP9_Y142] | inactive: 0.514
38 | SPYMLYQYLKQ [RPAP3_Y567_D564Y] | inactive: 2.14

target: SHP2 N-SH2 domain L43F; test: as above; conditions: peptide library: pTyr-Var

Row | Binder | enrichment score
39 | VIVRMYDYHVL [RPF2_Y109_G106V] | active: 4.97
40 | EKQVAYCPSGK [ROS1_Y2323] | inactive: 0.622
41 | FMLFQYLKQIE [RPAP3_Y569_D564Y_YF] | active: 3.72
42 | SPDMLYQFLKQ [RPAP3_Y567_YF] | inactive: 0.812
43 | YGSSSSGGAGG [RPA2_Y14_Y14S] | inactive: 0.447
44 | FLNSIYKCRDE [ROS1_Y2227_S2229C] | inactive: 1.15
45 | VIGRMYDYHVL [RPF2_Y109] | inactive: 2.73
46 | SGFESYGSSSS [RPA2_Y9_Y14S] | inactive: 0.549
47 | SPDMLYQYLKQ [RPAP3_Y567] | inactive: 0.816
48 | IRTDAYVPAMT [RPE65_Y89_R91P] | inactive: 0.667
49 | DMLYQYLKQIE [RPAP3_Y569] | inactive: 1.58
50 | YMLYQYLKQIE [RPAP3_Y569_D564Y] | inactive: 2.98
51 | PEVRRHVLPLN [RPE65_Y368_Y368H] | inactive: 1.02
52 | PVVKLYATEGR [RP1_Y199_D202E] | inactive: 0.884
53 | YGSSSYRGAGG [RPA2_Y14_G15R] | inactive: 0.428
54 | SGFESYGSSSY [RPA2_Y9] | inactive: 0.438
55 | IRTDAYVWAMT [RPE65_Y89_R91W] | inactive: 0.912
56 | HEDPMYDIIRD [RP9_Y142] | inactive: 0.607
57 | SPYMLYQYLKQ [RPAP3_Y567_D564Y] | inactive: 1.62

target: SHP2 N-SH2 domain T42A; test: as above; conditions: peptide library: pTyr-Var

Row | Binder | enrichment score
58 | VIVRMYDYHVL [RPF2_Y109_G106V] | inactive: 3.19
59 | EKQVAYCPSGK [ROS1_Y2323] | inactive: 0.502
60 | FMLFQYLKQIE [RPAP3_Y569_D564Y_YF] | inactive: 3.02
61 | SPDMLYQFLKQ [RPAP3_Y567_YF] | inactive: 0.707
62 | YGSSSSGGAGG [RPA2_Y14_Y14S] | inactive: 0.452
63 | FLNSIYKCRDE [ROS1_Y2227_S2229C] | inactive: 1.02
64 | VIGRMYDYHVL [RPF2_Y109] | inactive: 1.73
65 | SGFESYGSSSS [RPA2_Y9_Y14S] | inactive: 0.583
66 | SPDMLYQYLKQ [RPAP3_Y567] | inactive: 0.882
67 | IRTDAYVPAMT [RPE65_Y89_R91P] | inactive: 0.827
68 | DMLYQYLKQIE [RPAP3_Y569] | inactive: 1.44
69 | YMLYQYLKQIE [RPAP3_Y569_D564Y] | inactive: 2.47
70 | PEVRRHVLPLN [RPE65_Y368_Y368H] | inactive: 0.675
71 | PVVKLYATEGR [RP1_Y199_D202E] | inactive: 0.73
72 | YGSSSYRGAGG [RPA2_Y14_G15R] | inactive: 0.473
73 | SGFESYGSSSY [RPA2_Y9] | inactive: 0.519
74 | IRTDAYVWAMT [RPE65_Y89_R91W] | inactive: 0.712
75 | HEDPMYDIIRD [RP9_Y142] | inactive: 0.573
76 | SPYMLYQYLKQ [RPAP3_Y567_D564Y] | inactive: 1.87

target: SHP2 N-SH2 domain T52S; test: as above; conditions: peptide library: pTyr-Var

Row | Binder | enrichment score
77 | VIVRMYDYHVL [RPF2_Y109_G106V] | active: 5.05
78 | EKQVAYCPSGK [ROS1_Y2323] | inactive: 0.432
79 | FMLFQYLKQIE [RPAP3_Y569_D564Y_YF] | inactive: 3.16
80 | SPDMLYQFLKQ [RPAP3_Y567_YF] | inactive: 0.807
81 | YGSSSSGGAGG [RPA2_Y14_Y14S] | inactive: 0.336
82 | FLNSIYKCRDE [ROS1_Y2227_S2229C] | inactive: 1.05
83 | VIGRMYDYHVL [RPF2_Y109] | inactive: 2.89
84 | SGFESYGSSSS [RPA2_Y9_Y14S] | inactive: 0.636
85 | SPDMLYQYLKQ [RPAP3_Y567] | inactive: 1
86 | IRTDAYVPAMT [RPE65_Y89_R91P] | inactive: 0.797
87 | DMLYQYLKQIE [RPAP3_Y569] | inactive: 1.57
88 | YMLYQYLKQIE [RPAP3_Y569_D564Y] | inactive: 3.04
89 | PEVRRHVLPLN [RPE65_Y368_Y368H] | inactive: 0.889
90 | PVVKLYATEGR [RP1_Y199_D202E] | inactive: 0.751
91 | YGSSSYRGAGG [RPA2_Y14_G15R] | inactive: 0.506
92 | SGFESYGSSSY [RPA2_Y9] | inactive: 0.512
93 | IRTDAYVWAMT [RPE65_Y89_R91W] | inactive: 0.811
94 | HEDPMYDIIRD [RP9_Y142] | inactive: 0.738
95 | SPYMLYQYLKQ [RPAP3_Y567_D564Y] | inactive: 1.7

target: SHP2 N-SH2 domain wild-type; test: as above; conditions: peptide library: pTyr-Var

Row | Binder | enrichment score
96 | VIVRMYDYHVL [RPF2_Y109_G106V] | inactive: 3.13
97 | EKQVAYCPSGK [ROS1_Y2323] | inactive: 0.649
98 | FMLFQYLKQIE [RPAP3_Y569_D564Y_YF] | active: 4.53
99 | SPDMLYQFLKQ [RPAP3_Y567_YF] | inactive: 0.775
100 | YGSSSSGGAGG [RPA2_Y14_Y14S] | inactive: 0.496
101 | FLNSIYKCRDE [ROS1_Y2227_S2229C] | inactive: 1.13
102 | VIGRMYDYHVL [RPF2_Y109] | inactive: 1.82
103 | SGFESYGSSSS [RPA2_Y9_Y14S] | inactive: 0.561
104 | SPDMLYQYLKQ [RPAP3_Y567] | inactive: 0.827
105 | IRTDAYVPAMT [RPE65_Y89_R91P] | inactive: 0.738
106 | DMLYQYLKQIE [RPAP3_Y569] | inactive: 1.39
107 | YMLYQYLKQIE [RPAP3_Y569_D564Y] | inactive: 2.96
108 | PEVRRHVLPLN [RPE65_Y368_Y368H] | inactive: 1.52
109 | PVVKLYATEGR [RP1_Y199_D202E] | inactive: 0.677
110 | YGSSSYRGAGG [RPA2_Y14_G15R] | inactive: 0.696
111 | SGFESYGSSSY [RPA2_Y9] | inactive: 0.572
112 | IRTDAYVWAMT [RPE65_Y89_R91W] | inactive: 1.06
113 | HEDPMYDIIRD [RP9_Y142] | inactive: 0.877
114 | SPYMLYQYLKQ [RPAP3_Y567_D564Y] | inactive: 1.47
